Assay results from ChEMBL document CHEMBL4888484, “Replenishing the malaria drug discovery pipeline: Screening and hit evaluation of the MMV Hit Generation Library 1 (HGL1) against asexual blood stage Plasmodium falciparum ,using a nano luciferase reporter read-out” (2022).
The whole screen tested about 150,000 compounds, of which about 540 (0.36%) showed an effect of 50% or more. The list shows a part of the results.

These compounds were tested on Plasmodium falciparum (assay: Primary screen in NF54 nanoGlo assay, in single point, at 2uM, 72h; a lower Z score goes with more inhibition). Conditions: timepoint 72 hour.
Assay type: functional, Erythrocyte

Row | SMILES | % Inhibition [%] | Z score
1 | CC1CCC(NC(=O)[C@]2(C)CCC(=O)N2CCc2ccc(Cl)cc2)CC1 (some centres undefined) | -11 | 1.86
2 | CC[C@H](NC(=O)Cc1cn(C)c2ncccc12)c1cccs1 | -1 | 0.22
3 | CC(=O)N[C@@H](C)C(=O)Nc1nc2cc3c(cc2s1)OCCO3 | -7 | 0.96
4 | O=C(NCc1cncc(C2CC2)c1)Nc1nccs1 | -9 | 1.04
5 | Cn1c(=O)c2c(=O)c3nc[nH]c3[nH]c2n(C)c1=O | -4 | 0.55
6 | Cc1n[nH]c(C)c1CCCN(C)C[C@H]1CCOC(C)(C)C1 | -18 | 2.27
7 | COc1cccc(C(=O)NCC(=O)N[C@H]2CCCOc3c(F)cccc32)c1 | -12 | 2.11
8 | O=C1[C@@H]2C[C@@H](CN2C2CCC2)Oc2ccccc2N1Cc1ccccn1 | -2 | 0.34
9 | O=C(C1CCN(S(=O)(=O)Cc2ccccc2F)CC1)N(Cc1ccccc1)Cc1ccccc1 | 0 | 0.09
10 | NC(=O)CCNC(=O)C[C@H]1C(=O)NCCN1Cc1ccc2ccccc2c1 | -17 | 2.48
11 | O=C(CCCOc1ccccc1)NCCN1CCNC1=O | -28 | 2.7
12 | Cc1ccc(NC(=O)[C@H]2CCCN(S(=O)(=O)c3cc(-c4noc(C(C)C)n4)sc3C)C2)cc1C | -18 | 1.78
13 | CCOc1ccc(N[C@@H](C)c2nc3ccccc3c(=O)[nH]2)cc1C | -14 | 1.28
14 | Cc1noc(COC(=O)c2cc(-c3ccc4c(c3)OCCO4)nc3ccccc23)n1 | -8 | 0.77
15 | CC(C)CCC(CC(=O)NCCCN(C)C)C1CCOC(C)(C)C1 (centres undefined) | -3 | 0.43
16 | Cc1ccc(S(=O)(=O)Nc2ccc(C3CC3)cc2)cc1 | 31 | -3.5
17 | Cc1ccc(NC(=O)c2csc(-c3ccc(N4CCOCC4)nc3)n2)cc1F | -1 | 0.12
18 | COc1ccc(NC(=O)CCCc2nc(-c3cc4ccc(C)cc4nc3O)no2)cc1 | -17 | 3.34
19 | Cc1nc(C)c([C@H](C)NS(=O)(=O)N2CCc3ccccc3C2)s1 | 1 | -0.08
20 | Cn1cc(-c2cc3n(n2)CCCN3C(=O)CCC(=O)NCCCN2CCCCC2)c2ccccc21 | -8 | 1.07
21 | CCc1ccc(C(=O)N2CCC3(CC2)OC[C@@H](C(=O)NCc2ccccn2)N3C(=O)c2ccc(F)cc2)cc1 | -13 | 1.31

Row | SMILES | % Inhibition [%] | Z score
22 | COc1ccccc1C(=O)Nc1c(-c2cccc3ccccc23)c(=O)c2ccccc2n1C | -20 | 2.75
23 | COc1cccc(N2C(=O)N[C@@H]3CCN(S(=O)(=O)c4cccs4)[C@@H]3C2=O)c1 | -5 | 0.77
24 | O=C(O)c1cn(C[C@H](O)c2ccccc2)cc(Oc2ccccc2)c1=O | -5 | 0.8
25 | Cc1ccc(C2=NNC(=O)C3CCCCC23)cc1 (centres undefined) | -4 | 0.75
26 | CCN(Cc1cccs1)C(=O)c1cc2c(cc1O)CCCC2 | 7 | -1.28
27 | CC(C)(C)OC(=O)NCc1cccc(NCc2cc(C#N)cs2)c1 | -15 | 2
28 | Cc1cccc2sc(OC3CCN(C(=O)Cn4cnc5ccccc5c4=O)CC3)nc12 | 9 | -1.29
29 | Cc1ccc(-c2csc(NC(=O)Cc3c(C)noc3C)n2)c(C)c1 | -1 | 0.08
30 | CCN(CC(=O)Nc1ccc(OC)cc1)C(=O)c1cc(-c2cccs2)nc2c1c(C)nn2C | 15 | -1.94
31 | O=C(C#Cc1ccc2c(c1)OCO2)N1CC2CC=CCC2C1 (centres undefined) | -4 | 0.57
32 | Cc1cc(C(=O)N(CCN2CCOCC2)c2nc3c(C)cc(Cl)cc3s2)c(C)o1 | -13 | 1.96
33 | OCCC1CCCN(C2C=CCCC2)C1 (centres undefined) | 4 | -0.42
34 | CC(NC(=O)C1CCCN(C(=O)c2ccncc2)C1)C(=O)NCc1ccccc1 (centres undefined) | -5 | 1.06
35 | COCC(=O)Nc1cc(C(=O)N(CC2CC2)C[C@H]2CCCO2)c2c(c1)ncn2CCc1ccccc1 | 6 | -1.16
36 | CC(C)[C@H]1CC[C@H](C(=O)N2CCn3cnnc3[C@@H]2C)CC1 | -8 | 1.31
37 | CN(C(=O)c1ccccc1Oc1ccccc1)c1ccccc1 | 6 | -0.68
38 | O=C(Nc1nc(C(F)(F)F)cs1)c1ccc(-n2cc(Br)cn2)nn1 | -13 | 1.58
39 | O=C(c1nnc(-c2cc(S(=O)(=O)NC3CCCCCCC3)c[nH]2)o1)N1CCCC1 | -12 | 1.31
40 | CCCN1CCN(C(=O)c2cccn2C2CC2)CC1=O | -7 | 1.34
41 | O=C(Cc1cccc(Br)c1)NCC1CCNCC1 | -6 | 0.59
42 | CCOc1cc(CNS(=O)(=O)N(C)C)ccn1 | 0 | 0.01

Row | SMILES | % Inhibition [%] | Z score
43 | Cc1cc(C(=O)N2CCc3[nH]nc(C)c3C2)c2c(C)noc2n1 | 1 | -0.09
44 | CCc1ccccc1NC(=O)c1sccc1S(=O)(=O)N1CCc2ccccc2C1 | 38 | -1.2
45 | Cc1ccc(N2CCOC2=O)c(-c2cccc(C(=O)N3CCC[C@H](C#N)C3)c2)c1 | -1 | 0.17
46 | C=C(C)CN(CC)C(=O)Nc1cc(C)cc(C)n1 | 1 | -0.09
47 | Cc1ccc(CN(Cc2ccc(F)cc2)C(=O)CN(C2CC2)S(=O)(=O)c2ccccc2)o1 | -7 | 1.08
48 | O=C(NCc1cccs1)c1nn(-c2ccc(F)cc2)c2ccccc2c1=O | -7 | 0.92
49 | Cc1ccc(NC(=O)N[C@@H](CC(C)C)c2nc(-c3nnc[nH]3)no2)cc1 | -8 | 1.19
50 | CC1CC(CS(=O)(=O)N2CCOC(Cn3cccn3)C2)CCO1 (centres undefined) | -2 | 0.35
51 | Cc1ccc2oc(-c3noc(C(=O)NCc4ccccn4)n3)c(C)c2c1 | -6 | 0.79
52 | CCc1cc(CC)c(-c2cc(-c3ccccc3)on2)c(CC)c1-c1cc(-c2ccccc2)on1 | 46 | -1.99
53 | CCc1ccc(OCCN(C)C(=O)C(=O)Nc2nnc(CC)s2)cc1 | -2 | 0.3
54 | Cc1nccn1CCCCNC(=O)c1c(O)cc(Cl)cc1Cl | -11 | 1.46
55 | CC(C)NC(=O)N[C@@H]1CC[C@H]2CCOc3ccccc3C(=O)N3CCN(C(=O)OC(C)(C)C)C[C@H]3C(=O)NC[C@H]1O2 | 0 | 0.04
56 | O=C(CNC(=O)c1csc(Nc2ccccc2Cl)n1)NC[C@H]1CCCO1 | -1 | 0.28
57 | COc1ccc2cc1Oc1cccc(c1)CO[C@H]1CCN(C(=O)c3cnc(N4CCN(C)CC4)nc3C)C[C@H]1NC(=O)CC2 | -5 | 0.64
58 | CC(C)(C)OC(=O)NCCCC(=O)Nc1cc(F)c(F)cc1F | -11 | 2.16
59 | Cc1sc(C)c(S(=O)(=O)Nc2ccccc2)c1-c1ccno1 | -12 | 2.06
60 | O=C(CC1CCC(c2ccccc2)CC1)N1CCCS1(=O)=O (centres undefined) | -2 | 0.21
61 | CCCC(=O)NCC(=O)N[C@@H](Cc1ccccc1)c1cccs1 | 0 | -0.06
62 | Cc1nnnn1CCC(=O)N(C)CCC[C@H]1CCCO1 | -10 | 1.32
63 | CC(C)NC(=NC1CCCCC1)NCc1cc2ccccc2o1 | 4 | -0.58

Row | SMILES | % Inhibition [%] | Z score
64 | Cc1cccc(CN2CC[C@@]3(CCCN(Cc4cccc(F)c4F)C3)C2)n1 | -10 | 1.37
65 | CN(C)CCN(CC1CCCO1)C(=O)C1CC1c1cccnc1 (centres undefined) | -9 | 1.17
66 | Cc1ccc(C(=O)N2c3ccccc3C[C@H]2c2nc(C3CC3)no2)cn1 | -6 | 0.74
67 | Cc1cc(O[C@H]2CCCN(C(=O)Cc3ccc4c(c3)OCO4)C2)nc(C)n1 | 0 | 0
68 | O=C(NCc1nc(-c2ccco2)n[nH]1)Nc1ccccc1 | -6 | 1.12
69 | COCc1nsc(NC(=O)Cn2nc(C)cc2C)n1 | -3 | 0.35
70 | Cc1cc(C(=O)N2CCC[C@@H](Nc3ncc(F)cn3)C2)on1 | -6 | 0.77
71 | Cc1cc(C)n(Cc2nc(-c3cc(N4CCN(C)CC4)ccn3)no2)n1 | -11 | 1.18
72 | Cc1cccc(NC(=O)C(C)(C)C#N)c1C | 5 | -1
73 | CNc1ccc(C)cc1CN[C@H]1CCO[C@@H]1c1ccc(OC)nc1 | 0 | 0.04
74 | Cc1ccc(-c2c3c(=O)n(C)c(=O)n(C)c3c3c(-c4ccccc4)cc(C)nn23)cc1 | -11 | 1.44
75 | CC(=O)N(C)c1ccc(-c2cccc(-c3ccn(C[C@H]4COCCO4)n3)c2)cc1 | -19 | 2.45
76 | O=C(CNC1(CO)CCOCC1)N[C@H]1CCCc2ccccc21 | -4 | 0.61
77 | Cc1ccc(-c2ccc3nn(Cc4cc(F)cc(F)c4)c(=O)n3n2)cc1C | -18 | 2.27
78 | COCC1(C(=O)N2CCc3[nH]cnc3[C@H]2c2ccncc2)CCC1 | -6 | 0.55
79 | COC1CC(C(=O)NCC2(C#N)CCCCC2)C1 (centres undefined) | -3 | 0.41
80 | OC[C@H]1CCCN(CCNC2CCN(c3ccccc3Cl)CC2)C1 | 0 | 0.07
81 | Cc1ccc(CN(CCO)C(=O)c2cc(F)ccc2OCCN)s1 | 13 | -1.78
82 | Clc1cccc(OC2CN(Cc3cc(C4CC4)n[nH]3)C2)c1 | -2 | 0.27
